# The supplement of paper PMC11417369
# ± gives the standard deviation of the averaged measurements. This is one part of the list.
# Test system: PfAP2-EXP AP2 domain (GST-tagged)
# Assay: gcPBM binding intensity (ln(normalized median fluorescence intensity)); higher = stronger DNA binding
# In short: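 An Agilent 4 × 180k array carrying primer-extended double-stranded 36-bp intergenic genomic probes and negative controls received GST-tagged P. falciparum DNA-binding domains expressed in E. coli, about 25 μg on average, for 1 h. The binding buffer contained 1× PBS, 1% milk, 0.2 mg/ml BSA, 0.5% salmon testes DNA and 0.03% Triton X-100. Binding intensity is the top Masliner-normalised natural-log median intensity across replicate spots of either probe orientation, read after Alexa488 anti-GST antibody staining and a 488 nm scan.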
row,Sequence,gcPBM binding intensity (ln)
1,CATAATATATATTGAGCATGCTACTATTGTTAGAAA [TGCATGCA_site740],9 ± 0.31
2,ACATATAAGATATATACACACATATAAATACATTAA [CACACA_site7763],8.29 ± 0.4
3,AAAAAAAAAAACTACACACATACAAATATTTATATA [CACACA_site2574],8.32 ± 0.59
4,ATATATATGTATATATGTACATATATGTATATATAT [XGTACX_site4772],8.66 ± 0.17
5,ATAATATATGCAAAAACATGCACATAATATGTAAAA [TGCATGCA_site742],8.48 ± 0.28
6,ATAATTTTATATAAATGTACATACATTTTTATTATA [XGTACX_site7368],8.35 ± 0.32
7,TAATAAGTATCAAAATGTACATGACAAAAATAATTT [XGTACX_site8961],8.78 ± 0.4
8,TCTAAAAAAATTATATCACACATTATAAAGCATATT [CACACA_site4885],8.19 ± 0.36
9,TATACACATAGACACACACACATACACGCACATACA [CACACA_site6908],8.76 ± 0.49
10,TGATAAATTTTCACATGTACATATATAGAATAACCT [XGTACX_site2860],8.8 ± 0.28
11,ATTAAATCATATGAATGTACGGATATATATATTTCC [XGTACX_site8650],8.54 ± 0.36
12,ATTTGAAAAAATACTACACACCATATTGTTAATTTT [CACACA_site3829],8.21 ± 0.35
13,AAGATTCATATAAAAAGTACAAAAAGAAAAAAATAA [XGTACX_site6033],8.66 ± 0.5
14,ATATCTTCACTTATATGTACTTACATTTTTTTTTTT [XGTACX_site8696],8.87 ± 0.56
15,ATAACTATATACATCTGTACATAATACATAGATAAA [XGTACX_site2795],8.64 ± 0.59
16,ATTTGTATATAATATATATAATTTTTTTTTTTTGTT [XGTACX_negctrl_site425],8.2 ± 0.31
17,TTTTTTTTTTTTTTTACACACATTTGAATAACTTTA [CACACA_site6810],8.26 ± 0.49
18,TATATGGGATATATGTGTACATATAAAATATGTATC [XGTACX_site3365],8.44 ± 0.34
19,AAAAGAATTAAAAAATGTACATATAATATATATATA [XGTACX_site6721],9.41 ± 0.19

row,Sequence,gcPBM binding intensity (ln)
1,CTTAATATGAATAAAACACACATATATAATTTGTAA [CACACA_site5120],8.24 ± 0.3
2,AAAAAAGAAGACATCTAAGTAATAGTAACAATGTAT [CACACA_negctrl_site1660],8.72 ± 0.44
3,GACATATTATTCATGTGTACATATTATATGTATATA [XGTACX_site3442],8.59 ± 0.3
4,TATAAATATACACCCACACACATATATAAATAAATA [CACACA_site7717],8.93 ± 0.79
5,AAGAATTTAGAAGGCATGCACTTAAACATGCATATA,9.02 ± 0.2
6,CATATAATAAATAATACACACATATTGTAAATATAT [CACACA_site5734],8.43 ± 0.44
7,AATTGAGTATCGTGAGTGCAAAACGTGGTTCAAAGA,9.06 ± 0.16
8,TAAAATAAAATAAAATGTACTTTCCTTTTGATAATA [XGTACX_site6288],8.05 ± 0.4
9,GTAATGAACAAACACAAAAAAAAAAAAAAAATAATA [TGCATGCA_negctrl_site344],8.38 ± 0.31
10,TTTTCCCTTACAGAAAAAAAAAAATTCCTAACCCCG [CACACA_negctrl_site650],8.83 ± 0.65
11,TTATATATTTATAATCGTACAATAATTAACGTAAAA [XGTACX_site3206],8.6 ± 0.3
12,ATATATTTTAGGAGAGTGCATTTAATATTATTTAAT [GTGCAC_site9444],8.495 ± 0.021
13,TTTTTCTTTTTTTTTTCCTTTATCACATAAGAAAAA [CACACA_negctrl_site192],8.62 ± 0.54
14,AAAATGAAGAAGTGCACACATATATATATTTATATA [CACACA_site507],9.11 ± 0.2
15,AAGATATGAGGGAATACACACATATATATATATATA [CACACA_site1581],10.2 ± 0.43
16,AAGAAAATAAATAATACACACAAGGATTTGTAAATA [CACACA_site690],8.59 ± 0.29
17,CTTTTTTTTTAAAAATGTACACATTTTTGAAAATAC [XGTACX_site3127],8.35 ± 0.28
18,ATATGTTTGATTTTTTTTTTTTTTTTTTTTATGTGT [CACACA_negctrl_site1001],8.1 ± 0.51
19,AAAAAAAAAATTAAAAGTACAGAAAATAAATAAATA [XGTACX_site7470],8.61 ± 0.38

row,Sequence,gcPBM binding intensity (ln)
1,TTAATACACCATAAAAGTACATAATATGATATTTAA [XGTACX_site8561],8.23 ± 0.4
2,ATATATATAAATATATGTACATAAATATATTTGTAA [XGTACX_site6715],8.47 ± 0.42
3,AATTAAACTTTGTTTTTGTTTTTTTTTTTTATATTT [CACACA_negctrl_site1316],8.04 ± 0.43
4,TGGTGATATACGAAATGTACGCAAATCACAAAATAA [XGTACX_site8836],8.68 ± 0.33
5,TCTTTAACAAGTTAAACACACATACCTATATACATA [CACACA_site7237],8.51 ± 0.3
6,AAATAAAAATTAAAAAAATAGAAACGAATTGAATGC [TGCATGCA_negctrl_site365],8.87 ± 0.26
7,CGCGTATAACGAAATTGTACAAAAAAAATTAAACAT [XGTACX_site6813],8.9 ± 0.46
8,AACAATTTTTAAAGGTGTACAATATGTATATAAGAA [XGTACX_site254],8.92 ± 0.3
9,ATTAAATTAAAATAATGTACTTAATACTTTTGCTTA [XGTACX_site8404],8.16 ± 0.53
10,TCAACGATCACTCGGTGTACTATAAATGAGAGAATT [XGTACX_site1820],8.53 ± 0.42
11,AATTTTGAGATGTGGTGTACACAAAATTAGTTAGAC [XGTACX_site7033],9.23 ± 0.29
12,ATATATATATATAAAGGTACACATTTATTAAATATA [XGTACX_site7102],10.1 ± 0.12
13,TATTTGCAATATTATACACACATTAGATATTGCAAA [CACACA_site7565],8.65 ± 0.25
14,TAATATATATAACATATACACACGTTCATATATATA [CACACA_site462],8.43 ± 0.35
15,AAAAAAAAAAAAAAATGTACATATATAATATTTATA [XGTACX_site5117],8.34 ± 0.35
16,TACAAAATGTTATATCAATATAGATAAAAAAATGAA [XGTACX_negctrl_site285],8.66 ± 0.55
17,AACAAATTAATTCTAGTGCAGGACGTATTTGTGTAC [GTGCAC_site9907],8.87 ± 0.37
18,AAACAAATATATATATGTACTTATAAAAAAAAAAAT [XGTACX_site2211],8.54 ± 0.45
